Data as given in PubChem BioAssay AID2546 (National Center for Advancing Translational Sciences (NCATS), 2010).
About 11,000 (3.5%) of roughly 310,000 compounds were called active. Inconclusive results, whose numbers are uncertain, are shown with a selection of clear calls. Calls follow the shape of the dose curve; as a rule, active = well fitted inhibition curve with a large enough effect; inconclusive = small, poorly fitted or top-dose-only effect, or effect the other way; inactive = flat fitted curve, though single readings scatter. No potency is given beside an inconclusive call; the fits are too rough.

Assay: VP16 counterscreen qHTS for inhibitors of ROR gamma transcriptional activity;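 also: Gal4-VP16 expression switched on by copper sulfate through the metallothionein promoter; nearly all actives have a fitted effect of over 50% in size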
Details: Drosophila S2 Gal4-VP16 UAS-luciferase, luminescence, 20 h; series mostly up to 53.6 µM
Potency is read from the fitted curve at half-maximal effect; tags tell the direction and shape of the fitted curve.

Compound | Potency
COc1cc(/C=N/NC(=O)c2ccccn2)ccc1OC(=O)c1ccccc1Br | inconclusive [inhibitor, partial curve]
O=C(Nc1ccccc1Cl)c1ccc2ccccc2c1 | inactive
O=C(O)c1ccc(/C=N/NC(=O)c2cc(-c3cccs3)nc3ccccc23)cc1 | inactive
S=C(NCC1CCCO1)Nc1ccc(Cl)cc1Cl (centres undefined) | inconclusive [inhibitor, single point]
Cc1cccc(NCCNc2cccc(C)c2)c1 | inactive
Cc1cc(Oc2cnn(C(C)(C)C)c(=O)c2Cl)cc(C(C)C)c1 | inconclusive [inhibitor, partial curve]
O=C(NNC(=S)Nc1ccccc1Cl)c1ccccc1Br | inconclusive [inhibitor, single point]
CCCCCCn1c(COc2ccccc2F)nnc1SCC(=O)N1c2ccccc2NC(=O)C1(C)C | inconclusive [inhibitor, single point]
O=C(NC(=S)N1CCCCC1c1cccnc1)c1ccccc1 (centres undefined) | active: 4.47 µM
CCCCCCCCCC(=O)N/N=C(\C)c1cccnc1 | inconclusive [inhibitor, single point]
Fc1ccc(Nc2ccnc(Nc3ccc(F)cc3)n2)cc1 | inconclusive [inhibitor, single point]
COCc1ccc(C(=O)NCC2(N3CCCCC3)CCCCC2)cc1 | inactive
O=c1[nH]c(CN2CCN(Cc3ccccc3)CC2)nc2scc(-c3ccccc3)c12 | inactive
O=C(CC12CC3CC(CC(C3)C1)C2)NC(=S)Nc1ccc(CN2CCOCC2)cc1 | active: 10 µM
O=C(NC(=S)Nc1nc2ccccc2s1)c1cccs1 | inconclusive [inhibitor, full curve, poor fit]
CC(=O)N1c2ccc(S(=O)(=O)NCCc3ccccc3)cc2CC1C (centres undefined) | inconclusive [inhibitor, single point]
COc1ccc(-n2c(C)cc(C(=O)CSc3ccc(NC(C)=O)cc3)c2C)cc1 | inconclusive [inhibitor, single point]
Cn1nnnc1SCC(=O)c1cccs1 | inconclusive [inhibitor, single point]
O=C1CC(c2cccc([N+](=O)[O-])c2)c2ccc3ccccc3c2N1 (centres undefined) | inactive
c1ccc(-c2ccc(-c3cnc4n3CCCCC4)cc2)cc1 | active: 11.2 µM
CCOc1ccc2nc(N(CCCN(C)C)C(=O)c3ccc(C(=O)c4ccccc4)cc3)sc2c1 | inconclusive [inhibitor, single point]
O=C(O)c1cc(Nc2cc(Cl)c3nonc3c2[N+](=O)[O-])ccc1O | inconclusive [inhibitor, single point]
O=C(CN1C(=O)NC2(CCCC2)C1=O)Nc1ccc(F)c(Cl)c1 | inactive
O=C(CSC1CC(=O)N(CCc2ccccc2)C1=O)Nc1cccc(Cl)c1 (centres undefined) | inconclusive [inhibitor, single point]
Fc1ccccc1/C=N/n1c(C2CCCCC2)n[nH]c1=S | inconclusive [inhibitor, single point]

Compound | Potency
O=C1CSC(=S)N1/N=C/c1ccc(O)c([N+](=O)[O-])c1 | inactive
Cc1ccsc1/C=N/NC(=O)c1nnn(-c2nonc2N)c1C | inconclusive [inhibitor, single point]
CCN(CC(=O)NC(c1ccccc1)c1ccccc1)Cc1nc2ccccc2c(=O)[nH]1 | active: 11.2 µM
Cn1c(=O)c(C(=O)NNC(=O)c2ccc(Br)cc2)c(O)c2ccccc21 | inconclusive [inhibitor, single point]
C=C(C)CSc1cc(C)c(C#N)c2nc3ccccc3n12 | active: 3.98 µM
COc1ccccc1NC(=S)NCCc1ccc(Cl)cc1 | active: 7.08 µM
COc1ccc(/C=N/NC(=O)c2cc(C)oc2C)cc1OCc1ccccc1 | inconclusive [inhibitor, single point]
Fc1ccc(C2CC(c3cccs3)=NN2c2ccccc2)cc1 (centres undefined) | inactive
CCCC[C@@H]1C[C@H]1C(NC(=O)c1ccccc1)c1ccc(C(F)(F)F)cc1 (some centres undefined) | inconclusive [inhibitor, single point]
CC(C)Cn1c(N)c(C(=O)COC(=O)c2ccccc2F)c(=O)n(C)c1=O | inactive
COc1ccc(S(=O)(=O)N(C)c2c(C)n(C)n(-c3ccccc3)c2=O)cc1OC | inactive
O=C(/C=C/c1ccco1)Nc1ccc(Oc2ccc(Cl)cc2)cc1 | inactive
O=C1C2C3C=CC(C4CC34)C2C(=O)N1/N=C/c1ccc([N+](=O)[O-])o1 (centres undefined) | active: 10 µM
COc1ccc(NC(=S)Nc2ccc(OCc3ccccc3)cc2)c(OC)c1 | active: 7.08 µM
COc1ccc2cc(C(=O)N/N=C/c3sc4ccccc4c3O)ccc2c1 | inconclusive [activator, partial curve]
Cc1ccc2nc(NC(=O)Cc3cccs3)sc2c1 | inconclusive [inhibitor, single point]
CN1c2ccccc2C2(C)CCCC3=Cc4cccc([N+](=O)[O-])c4OC312 (centres undefined) | inconclusive [inhibitor, partial curve]
O=C(N/N=C/c1ccc(Cl)s1)c1ccccc1[N+](=O)[O-] | active: 7.08 µM
Cc1cc(Cl)ccc1OCCCC(=O)NCc1ccncc1 | inconclusive [inhibitor, single point]
Cc1ccc(O)c(NC(=O)CSc2n[nH]c(-c3ccccc3)n2)c1 | inconclusive [inhibitor, single point]
CCCCN(CC)C(=O)/C=C/c1cccc([N+](=O)[O-])c1 | inactive
O=C(Nc1nnc(SCC(=O)N2CCCc3ccccc32)s1)c1ccc2ccccc2c1 | active: 5.62 µM
COCCCNC(=S)N(Cc1ccccc1)Cc1nc2ccccc2c(=O)[nH]1 | inconclusive [inhibitor, single point]
Cc1nnc(NC(=O)c2sc3ccccc3c2Cl)s1 | active: 8.91 µM
